Measured values published in PubChem BioAssay AID588453 (National Center for Advancing Translational Sciences (NCATS), 2011).
The campaign covered roughly 390,000 compounds. About 4,000 (1%) were called active. Inconclusive results, whose numbers are uncertain, are shown with a selection of clear calls. Calls follow the shape of the dose curve; as a rule, active = well fitted inhibition curve with a large enough effect; inconclusive = small, poorly fitted or top-dose-only effect; inactive = no such curve, though single readings can be large or run the other way. Where the call is inconclusive, the potency comes from a doubtful curve fit.

target: Thioredoxin reductase 1, cytoplasmic (Rattus norvegicus) (UniProt O89049); assay: qHTS Assay for Inhibitors of Mammalian Selenoprotein Thioredoxin Reductase 1 (TrxR1): qHTS; conditions: recombinant rTrxR1, NADPH fluorescence consumption, selenite substrate; series mostly up to 114 µM; activity change, negative = inhibition: at the top concentration; also: nearly all actives have a fitted effect of over 65% in size
Procedure, shortened: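 Rat TrxR1 (90 nM in the dispensed reagent) was pre-reduced with 400 uM NADPH for 5 min at room temperature, then incubated with compound for 15 min. After 400 uM selenite was added, NADPH fluorescence (Ex 340/Em 450 nm) was followed for 8 min.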
% is scaled to controls: 0 for no effect and ±100 for the full control effect; potency is read from the fitted curve at half-maximal effect; tags tell the direction and shape of the fitted curve.

Sequence of UniProt O89049 (O89049 whole entry, looked up): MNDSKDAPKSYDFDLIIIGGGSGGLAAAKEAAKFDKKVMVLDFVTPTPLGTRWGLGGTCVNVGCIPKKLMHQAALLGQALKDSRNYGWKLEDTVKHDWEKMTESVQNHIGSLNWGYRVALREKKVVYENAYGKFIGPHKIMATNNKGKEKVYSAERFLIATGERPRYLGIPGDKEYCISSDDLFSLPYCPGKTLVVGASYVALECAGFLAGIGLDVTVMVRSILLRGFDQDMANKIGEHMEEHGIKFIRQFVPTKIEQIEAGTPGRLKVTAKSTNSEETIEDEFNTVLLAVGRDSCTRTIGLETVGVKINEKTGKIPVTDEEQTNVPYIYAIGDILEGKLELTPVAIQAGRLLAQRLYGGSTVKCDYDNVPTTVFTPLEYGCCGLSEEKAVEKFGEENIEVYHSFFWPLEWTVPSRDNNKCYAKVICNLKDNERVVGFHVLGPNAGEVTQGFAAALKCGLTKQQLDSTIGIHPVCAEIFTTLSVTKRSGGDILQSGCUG

SMILES	Potency	activity change, negative = inhibition
C[C@@H]1C=C(C(=O)N2CCN(Cc3ccc4c(c3)OCO4)CC2)O[C@H](OCCCCO)C1	inconclusive: 79.4 µM [inhibitor, single point]	–
Cc1cc(C)nc(SCc2nnc(SCc3ccc([N+](=O)[O-])cc3)n2Cc2ccco2)n1	inconclusive: 10 µM [inhibitor, partial curve]	–
CS(=O)(=O)N(CC(=O)NCc1ccco1)c1ccc(Cl)cc1Cl	inconclusive: 28.2 µM [inhibitor, partial curve, poor fit]	–
CCCc1ccc(S(=O)(=O)N2CCC(c3nnc(-c4cccc(C)c4)o3)CC2)cc1	–	inactive: -8.04%
CC1(C)Oc2c(ccc(O)c2CN2CCOCC2)C2=C1CCCC2	–	inactive: -2.67% [at 11.4 µM]
CCOC(=O)N1CCN(CC(=O)c2c(C)[nH]c3ccccc23)CC1	inconclusive: 28.2 µM [inhibitor, single point]	–
O=C(c1ccc(CS(=O)(=O)c2ccc(Br)cc2)o1)N1CCCC1	inconclusive: 89.1 µM [inhibitor, single point]	–
CN=c1scc(-c2ccco2)n1/N=C/c1ccc(O)c(O)c1	inconclusive: 25.1 µM [inhibitor, partial curve]	–
O=C(CCN1C(=O)C2CC=C(Cl)CC2C1=O)NCc1ccco1 (stereo unspecified)	inconclusive: 35.5 µM [inhibitor, single point]	–
CCOC(=O)NC(C(F)(F)F)(C(F)(F)F)P(=O)(c1ccccc1)c1ccccc1	inconclusive: 35.5 µM [inhibitor, partial curve, poor fit]	–
COc1cccc(CN=c2c([N+](=O)[O-])nn(-c3ccccc3C)n2O)c1	–	inactive: 2.74%
Cc1cccc(N2CCN(CC(=O)Nc3ccccc3[N+](=O)[O-])CC2)c1C	–	inactive: -0.279%
CC(C)N1C/C(=C/c2cccnc2)C(=O)/C(=C/c2cccnc2)C1	inconclusive: 11.2 µM [inhibitor, full curve]	–
Cc1ccc(NS(=O)(=O)c2ccc3c(c2)CC(=O)N3)cc1Cl	–	inactive: 9.35%
S=c1[nH]nc(COc2ccccc2)n1/N=C/C=C/c1ccco1	–	inactive: -52.6%
CCCNC(=O)c1ccc(C2SCC(=O)N2Cc2ccccc2)cc1 (stereo unspecified)	–	inactive: -22.3%
O=C(NCCCN1CCc2ccccc2C1)Nc1ccc(Br)cc1	inconclusive: 70.8 µM [inhibitor, partial curve, poor fit]	–
CCn1c(=O)cc(OCC(=O)N(C)c2ccc(OC)cc2)c2ccccc21	–	inactive: 25.5%
FC(F)(F)COc1nc(N2CCOCC2)nc(N(c2ccccc2)c2ccccc2)n1	–	inactive: -21.5% [at 57.1 µM]
NC(=S)Cc1nc(-c2ccc(Cl)cc2)cs1	–	inactive: -24.2%
O=C(CNC(=O)c1ccccc1Br)N/N=C/c1cc(Br)ccc1O	–	inactive: 6.67%
N=c1n(-c2ccccc2)c(O)cc(=O)n1-c1ccccc1	inconclusive: 7.94 µM [inhibitor, partial curve]	–
Cc1ccccc1Nc1nnc(SCC(=O)NC(=O)NCc2ccco2)s1	inconclusive: 22.4 µM [inhibitor, partial curve, poor fit]	–

SMILES	Potency	activity change, negative = inhibition
CC(c1ccco1)N(C(=O)c1ccccc1NS(=O)(=O)c1ccc(Cl)c([N+](=O)[O-])c1)c1ccccn1 (stereo unspecified)	inconclusive: 79.4 µM [inhibitor, single point]	–
O=C1C2CC=CCC2C(=O)N1Nc1ccccc1 (stereo unspecified)	–	inactive: 4.66% [at 57.1 µM]
Cn1nccc1C(=O)N1CCN(C23CC4CC(CC(C4)C2)C3)CC1	inconclusive: 17.8 µM [inhibitor, full curve]	–
O=C(COc1cc2oc(=O)c3c(c2cc1Cl)CCC3)NCc1ccncc1	inconclusive: 35.5 µM [inhibitor, single point]	–
CCC(=O)Nc1ccc(C(=O)Cn2ncc(Cl)c(Cl)c2=O)cc1	inconclusive: 70.8 µM [inhibitor, partial curve]	–
CCOc1ccc2nc(N3CCCC(C(=O)NCCc4ccc(OCC)c(OCC)c4)C3)sc2c1 (stereo unspecified)	–	inactive: 24.4%
CCOc1ccc(-c2ccc(/C=C3/C(=N)N4C(C)=CSC4=NC3=O)o2)c([N+](=O)[O-])c1	inconclusive: 79.4 µM [inhibitor, partial curve, poor fit]	–
COc1ccc(CCNC(=O)c2nc(-c3ccc(Cl)cc3)n3c2CCCCC3)c(OC)c1	–	inactive: 12.7%
CC(=O)N=c1c(C#N)cc2c(=O)n3ccccc3nc2n1CCCOC(C)C	inconclusive: 70.8 µM [inhibitor, single point]	–
CC1=C(C(=O)OC2CCCCCCC2)C(c2cccc(O)c2)NC(=O)N1 (stereo unspecified)	–	inactive: -8.44% [at 57.1 µM]
CCCCn1nc(NS(=O)(=O)c2cccc3nonc23)c2cc3cccc(C)c3nc21	–	inactive: 22.2%
CC1CCCC(NC(=O)NC(=O)COC(=O)C2=NN(c3ccccc3)C(=O)CC2)C1C (stereo unspecified)	–	inactive: 5.11%
Cc1cccc(C)c1-n1c(C)cc(/C=N\NC(=O)CC(=O)NC2CCCCC2)c1C	–	inactive: 6.31%
CN(c1ccccc1)S(=O)(=O)c1cc(C(=O)OCC(=O)c2c(N)n(C)c(=O)n(C)c2=O)ccc1Cl	inconclusive: 89.1 µM [inhibitor, single point]	–
COc1cc(CNCc2ccco2)cc(OC)c1O	inconclusive: 56.2 µM [inhibitor, partial curve, poor fit]	–
O=C(CCl)N(C1CCCC1)C1CCS(=O)(=O)C1 (stereo unspecified)	inconclusive: 39.8 µM [inhibitor, partial curve, poor fit]	–
CCC(=O)N1CCN(c2ccc(NC(=S)NC(=O)c3cccc([N+](=O)[O-])c3)cc2)CC1	inconclusive: 17.8 µM [inhibitor, full curve]	–
COc1ccc(N2CCN(C(=O)/C=C/c3ccco3)CC2)cc1	inconclusive: 79.4 µM [inhibitor, partial curve]	–
C/C(=N\NS(=O)(=O)c1ccc(Cl)c([N+](=O)[O-])c1)c1cc2ccccc2o1	inconclusive: 44.7 µM [inhibitor, partial curve]	–
CC(=O)c1ccc(OCc2cc(C(=O)N(C)Cc3ccccn3)no2)cc1	active: 50.1 µM	–
CCOc1cc2c(C#N)c(N(CC)CC)nc(N)c2c(N)n1	–	inactive: 13% [at 57.1 µM]
O=C(Nc1nc2c(F)cc(F)cc2s1)c1ccccn1	–	inactive: 19.4% [at 57.1 µM]
Cc1ccc2nc3c(c(C(=O)OC4CCOC4=O)c2c1)CCCC3 (stereo unspecified)	inconclusive: 4.47 µM [inhibitor, single point]	–
